Source: PMC4336329 (PLoS ONE, 2015)
About 14,000 (4.5%) of roughly 310,000 compounds showed an effect of 50% or more. Effects have a minus sign here. This is one part of the list.

molecular target: human ether-à-go-go-related gene (hERG) potassium channel (human, UniProt Q12809); experiment: primary screen, population patch clamp on CHO cells stably expressing hERG
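Further: peak tail current of the secondary pulse compared with the same well before compound.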

human ether-à-go-go-related gene (hERG) potassium channel, sequence (Q12809 whole entry, looked up): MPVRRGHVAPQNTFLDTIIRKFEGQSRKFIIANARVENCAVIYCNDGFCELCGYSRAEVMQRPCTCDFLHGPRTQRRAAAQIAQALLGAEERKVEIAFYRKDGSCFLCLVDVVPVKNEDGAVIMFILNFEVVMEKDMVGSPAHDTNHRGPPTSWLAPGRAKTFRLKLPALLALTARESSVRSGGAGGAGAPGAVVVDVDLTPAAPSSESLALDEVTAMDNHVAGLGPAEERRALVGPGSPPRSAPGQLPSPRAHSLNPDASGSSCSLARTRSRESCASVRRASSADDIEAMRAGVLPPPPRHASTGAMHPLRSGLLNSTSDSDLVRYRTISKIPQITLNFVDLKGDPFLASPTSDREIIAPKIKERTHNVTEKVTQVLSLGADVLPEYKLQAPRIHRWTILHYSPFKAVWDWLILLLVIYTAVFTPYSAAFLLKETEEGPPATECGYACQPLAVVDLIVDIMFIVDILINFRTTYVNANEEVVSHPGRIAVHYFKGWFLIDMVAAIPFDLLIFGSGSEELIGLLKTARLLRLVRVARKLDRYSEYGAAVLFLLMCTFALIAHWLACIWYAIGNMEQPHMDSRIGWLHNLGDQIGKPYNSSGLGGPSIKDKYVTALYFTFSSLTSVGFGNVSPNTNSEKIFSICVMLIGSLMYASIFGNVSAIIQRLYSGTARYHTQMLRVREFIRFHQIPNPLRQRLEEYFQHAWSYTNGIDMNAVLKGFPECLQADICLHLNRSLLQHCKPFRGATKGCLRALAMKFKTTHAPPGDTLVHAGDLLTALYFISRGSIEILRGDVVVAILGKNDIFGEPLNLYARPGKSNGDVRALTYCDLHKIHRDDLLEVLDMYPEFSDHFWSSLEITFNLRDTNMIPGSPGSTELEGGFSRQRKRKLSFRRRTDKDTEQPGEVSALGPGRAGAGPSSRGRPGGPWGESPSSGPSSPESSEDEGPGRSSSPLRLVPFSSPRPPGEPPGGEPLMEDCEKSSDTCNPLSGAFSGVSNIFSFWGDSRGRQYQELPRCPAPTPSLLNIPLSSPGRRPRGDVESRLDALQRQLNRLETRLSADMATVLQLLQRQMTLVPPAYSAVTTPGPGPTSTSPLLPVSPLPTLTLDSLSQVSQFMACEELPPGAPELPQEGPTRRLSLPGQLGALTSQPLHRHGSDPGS

Row | Compound | hERG current change (%, negative = inhibition) at 10uM
1 | CC(=O)N1CCc2cc(S(=O)(=O)CCC(=O)Nc3ccc(Cl)cc3F)ccc21 | 13.8%
2 | Oc1ccc(N2CCN(C(c3ccccn3)c3nnnn3C3CCCC3)CC2)cc1 (centres unmarked) | -19.5%
3 | COc1cc(OC)cc(C(=O)NCC(=O)Nc2ccc(OC)c(Cl)c2)c1 | 10.7%
4 | Nc1nonc1C(=O)NCCNC(=O)c1ccc(Cl)cc1 | 4.7%
5 | CCn1c(=O)c(-[n+]2ccccc2)c(O)c2ccccc21.[Cl-] | 16.3%
6 | COc1cc2c(cc1OC)-c1cc(NC3CCCCC3)nc(=O)n1CC2 | -11.7%
7 | O=C(Nc1cccc(C(F)(F)F)c1)C1CCN(S(=O)(=O)c2cnc[nH]2)CC1 | 13.1%
8 | COc1ccc(CC(=O)OCN2C(=O)c3ccccc3C2=O)cc1OC | 19%
9 | Fc1ccc(-c2csc(-c3ccccn3)n2)cc1F | 52%
10 | COc1ccccc1N1CCN(C(CNS(=O)(=O)c2ccccc2)c2ccccc2)CC1 (centres unmarked) | 4.32%
11 | CCN1CCN(C(C)C(=O)Nc2c(C)n(C)n(-c3ccccc3)c2=O)CC1.O=C(O)C(=O)O (centres unmarked) | 18.6%
12 | CC(=O)c1cccc(NC(=O)/C(=C\c2cccnc2)NC(=O)c2ccccc2)c1 | 7.67%
13 | C/C=C/CC#N | 2.03%
14 | CCCCn1c(SCC(=O)c2ccc(OC)c(OC)c2)nc2cc(S(N)(=O)=O)ccc21 | 8.42%
15 | Cc1ccc(CNc2ccc3c(c2)OCO3)c(C)c1 | -15.1%
16 | O=C(Nc1cccc(F)c1)Nc1ccccn1 | 18.5%
17 | Cn1nnnc1Sc1ncnc2scc(-c3cccc(F)c3)c12 | 4.33%
18 | CCCCNc1cc(C)nc(N2CCOCC2)n1 | -44.4%
19 | CCOc1ccc(-c2ncncc2-c2ccccc2OC)c(O)c1 | 3.17%
20 | CC(C)CN1CCN=C1Nc1ccccc1 | 7.21%
21 | COc1ccc2[nH]cc(C(O)CN3CCN(c4ccccc4F)CC3)c2c1 (centres unmarked) | -22%
22 | Cc1ccc2c(c1)C1(C(=O)N2C)N2CC3(C)CN1CC(C)(C2)C3=O (centres unmarked) | 19%
23 | Cl.Fc1ccc(C2=CSC3=NCCN23)cc1 | 15.4%

Row | Compound | hERG current change (%, negative = inhibition) at 10uM
24 | CCN(CC(=O)Nc1cc(Cl)ccc1C)C(=O)c1nc2nc(C)cc(C)n2n1 | 2.44%
25 | COc1ccc(-c2ocnc2C(=O)Nc2ccccc2N2CCCCC2)cc1 | -7.96%
26 | CCn1c(C)nc2cc(C(=O)NNC(=S)NC(=O)c3ccccc3)ccc21 | 28.2%
27 | COc1cc(C2NC(=O)NC(C)=C2C(=O)OC2CCCCC2)cc(Br)c1O (centres unmarked) | -4.68%
28 | CC(C)N1CC(O)=C(c2ccccc2)C1=N | -0.355%
29 | CC(=O)O[C@@H]1/C=C/[C@](C)(O)C[C@@H](C)C/C=C/[C@H]2[C@H](O)[C@@](C)(O)[C@@H](C)[C@H]3[C@H](Cc4ccccc4)NC(=O)[C@@]312 | 20%
30 | Cc1ccc(/C=C/C(=O)NCCc2ccccc2)o1 | 16.2%
31 | COc1ccc(C2/C(=C(/O)c3ccc(C)cc3)C(=O)C(=O)N2c2ccccn2)cc1OC (centres unmarked) | 10.5%
32 | O=C1c2ccccc2C(=O)N1Cc1nc2ccccc2c(=O)n1CCCN1CCOCC1 | -10.7%
33 | Cc1csc(SC(C)C(=O)NCC2CCCCC2)n1 (centres unmarked) | 0.139%
34 | COc1cc2c(cc1OC)-c1cc(N3CCCc4ccccc43)nc(=O)n1CC2 | -7.57%
35 | COC(=O)c1cc(COC(=O)c2nc3nccc(C)n3n2)oc1C | 15.7%
36 | Cn1c(=O)c2c(ncn2CC(=O)OCC(=O)Nc2ccc(F)cc2F)n(C)c1=O | -18.4%
37 | COc1ccc(C(=O)NCc2ccc(C)cc2)cc1S(=O)(=O)N1CCCC1 | -9.74%
38 | CCCNS(=O)(=O)c1ccc(CCC(=O)Nc2ccc3c(c2)OCO3)cc1 | 3.36%
39 | CCn1cc(C(=O)NC(=S)Nc2cccc(O)c2)cn1 | 1.2%
40 | COCCNC(=O)C(c1ccc(OC)cc1)N(Cc1ccco1)C(=O)CCC(=O)Nc1ccccn1 (centres unmarked) | 4.13%
41 | Cc1cccc(OCCn2ccnc2)c1 | 12.7%
42 | C=CC#CC1(O)CC(C)N(C)CC1C (centres unmarked) | -0.439%
43 | O=C(CCCOc1ccccc1)NCCc1nc2ccccc2[nH]1 | -5.39%
44 | O=C(OCc1ccc(COC(=O)c2ccccn2)cc1)c1ccccn1 | 25.6%
45 | Cc1ccc(NS(=O)(=O)c2ccc(Cl)c(C(=O)Nc3cccc(C(=O)O)c3)c2)cc1 | 8.84%
46 | CCCC(=O)N1CCN(c2ccc(NC(=O)C(C)(C)C)cc2Cl)CC1 | -0.981%

Row | Compound | hERG current change (%, negative = inhibition) at 10uM
47 | O=C(/C(=C/c1ccccc1)n1cncn1)c1ccc(Cl)cc1Cl | -6.84%
48 | CN(Cc1ccco1)C(=O)Cn1nc(-c2ccc(Cl)cc2)ccc1=O | -46.6%
49 | O=C(OCc1cc(=O)n2c(n1)sc1ccccc12)c1ccc2c(=O)n3c(nc2c1)CCC3 | 6.09%
50 | Cc1cccc(NC(=O)CSc2cc(C(=O)c3nccn3C)c3ccccc3n2)c1 | 16.9%
51 | CC(C)(C)NCC(O)COc1ccccc1C(=O)CCc1ccccc1.Cl (centres unmarked) | -69.9%
52 | CCCN(c1ccccc1F)S(=O)(=O)c1c[nH]c(C(=O)OC)c1 | -12.9%
53 | CC(C)C(C(=O)O)N1CCS(=O)(=O)CC1 (centres unmarked) | -8.12%
54 | CC1SCC(=O)N(CC(=O)NCCc2ccccc2)C1=O (centres unmarked) | -9.09%
55 | CC(c1ccon1)N(C)Cc1cn(Cc2ccccc2)nc1-c1ccc2c(c1)OCO2 (centres unmarked) | -9.87%
56 | O=C(CSc1ccccn1)N/N=C/C=C/c1ccccc1 | -27.7%
57 | O=C(COC(=O)C1COc2ccccc2O1)NC(=O)NC1CCCCC1 (centres unmarked) | -2.63%
58 | Cc1c(NC(=O)COC(=O)C2=COCCO2)cccc1[N+](=O)[O-] | 23.1%
59 | O=C(CN1C(=O)S/C(=C\c2ccccc2F)C1=O)Nc1ccccc1O | 23.3%
60 | COc1ccccc1N1CCN(C(=O)c2cccc(N3C(=O)C4C5C=CC(C5)C4C3=O)c2)CC1 (centres unmarked) | 5.22%
61 | O=C(CSc1nc2ccccc2c(=O)n1-c1ccc(F)cc1)NCc1ccco1 | -1.02%
62 | CC(=O)Nc1ccc(N(C(=O)CNC(=O)c2cccs2)C(C(=O)NC(C)(C)C)c2ccccc2)cc1 (centres unmarked) | -12.1%
63 | CCc1c(C)nc2ncnn2c1NCCc1ccc(OC)cc1 | -12.7%
64 | Cc1ccc(-n2nnc(-c3cc4ccccc4n3C)n2)cc1 | 10.5%
65 | CCOc1ccc(S(=O)(=O)N2CCCCC2)cc1NC(=O)CN1C(=O)NC(C)(C2CC2)C1=O (centres unmarked) | -21.5%
66 | Cc1ccc(C)c(NC(=O)CCC(=O)NNC(=O)COc2cc(C)ccc2C)c1 | 28.8%
67 | COc1ccccc1NC(=O)CSC1=NC(=O)C(NC(C)=O)C(=O)N1 (centres unmarked) | 0.223%
68 | COc1ccc(NC(=O)C2CCN(S(C)(=O)=O)CC2)cc1Cl | -4.68%
69 | CC(=O)N/C(=C/c1ccccc1)C(=O)NCCO | 0.551%

Row | Compound | hERG current change (%, negative = inhibition) at 10uM
70 | O=c1oc(-c2cccs2)nc2sc3c(c12)CCCCC3 | -42.4%
71 | CCc1cccc(CC)c1NC(=O)c1cccc(NC(=O)c2ccccc2)c1 | -17.1%
72 | COC(CNC(=O)c1ccc(N2CCC3(CC2)OCCO3)c([N+](=O)[O-])c1)OC | 2.51%
73 | Cc1ccc(NC(=S)NCC2CCCO2)cc1C (centres unmarked) | -1.97%
74 | O=C(CC1c2ccccc2Oc2ccccc21)Nc1ccccc1F | 16.2%
75 | Cc1nc(NC(=O)CCc2ccccc2)sc1C | 8.6%
76 | CN1CCN(C(=O)c2cc(Cl)cc(Cl)c2NC(=O)c2ccco2)CC1 | 6.19%
77 | O=C(CSc1nc(-c2ccccc2)cc(C(F)(F)F)n1)c1cccc([N+](=O)[O-])c1 | 7.73%
78 | COc1ccc(OC)c(NC2=NCCS2)c1 | 11.3%
79 | CC(SCC(=O)Nc1ccccc1)c1nc2ccccc2c(=O)[nH]1 (centres unmarked) | 5.65%
80 | Cc1ccc(-n2c(SCC(N)=O)nc3c([nH]c4ccccc43)c2=O)cc1 | 12.5%
81 | Cc1cc(-c2ccc(C)c(S(=O)(=O)NCc3ccc(Br)cc3)c2)on1 | -31%
82 | CCOC(=O)C1Cc2c([nH]c3ccccc23)CN1.Cl (centres unmarked) | -9.94%
83 | CC1=NN(Cc2ccccc2)C(=O)/C1=C\c1ccc(N(C)C)cc1 | 5.39%
84 | COCCNC(=O)/C(C#N)=C/c1cc(C)n(-c2ccc(C)cc2)c1C | -4.18%
85 | Cc1cccc(C)c1NC(=S)N1CCCN(C)CC1 | 15.2%
86 | CCOC(=O)C1(Cc2ccccc2C)CCCN(S(=O)(=O)CC)C1 (centres unmarked) | 13.9%
87 | CCN(CC(=O)NC(C)C)Cc1nc2c(Br)cc(Br)cc2c(=O)[nH]1 | 7.2%
88 | O=C(NCc1cccs1)C1CCN(S(=O)(=O)c2ccccc2F)CC1 | 10.4%
89 | Cc1cc(N2C(=O)C3CCCN3C2c2ccc(Cl)c(Cl)c2)no1 (centres unmarked) | -16.6%
